# Out of some 310,000 compounds screened, about 14,000 (4.5%) showed an effect of 50% or more. Effects have a minus sign here. Some of the results follow.
# Target: human ether-à-go-go-related gene (hERG) potassium channel (human, UniProt Q12809)
# Assay: primary screen, population patch clamp on CHO cells stably expressing hERG
# 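Note: peak tail current of the secondary pulse compared with the same well before compound.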
# human ether-à-go-go-related gene (hERG) potassium channel, sequence (Q12809 whole entry, looked up): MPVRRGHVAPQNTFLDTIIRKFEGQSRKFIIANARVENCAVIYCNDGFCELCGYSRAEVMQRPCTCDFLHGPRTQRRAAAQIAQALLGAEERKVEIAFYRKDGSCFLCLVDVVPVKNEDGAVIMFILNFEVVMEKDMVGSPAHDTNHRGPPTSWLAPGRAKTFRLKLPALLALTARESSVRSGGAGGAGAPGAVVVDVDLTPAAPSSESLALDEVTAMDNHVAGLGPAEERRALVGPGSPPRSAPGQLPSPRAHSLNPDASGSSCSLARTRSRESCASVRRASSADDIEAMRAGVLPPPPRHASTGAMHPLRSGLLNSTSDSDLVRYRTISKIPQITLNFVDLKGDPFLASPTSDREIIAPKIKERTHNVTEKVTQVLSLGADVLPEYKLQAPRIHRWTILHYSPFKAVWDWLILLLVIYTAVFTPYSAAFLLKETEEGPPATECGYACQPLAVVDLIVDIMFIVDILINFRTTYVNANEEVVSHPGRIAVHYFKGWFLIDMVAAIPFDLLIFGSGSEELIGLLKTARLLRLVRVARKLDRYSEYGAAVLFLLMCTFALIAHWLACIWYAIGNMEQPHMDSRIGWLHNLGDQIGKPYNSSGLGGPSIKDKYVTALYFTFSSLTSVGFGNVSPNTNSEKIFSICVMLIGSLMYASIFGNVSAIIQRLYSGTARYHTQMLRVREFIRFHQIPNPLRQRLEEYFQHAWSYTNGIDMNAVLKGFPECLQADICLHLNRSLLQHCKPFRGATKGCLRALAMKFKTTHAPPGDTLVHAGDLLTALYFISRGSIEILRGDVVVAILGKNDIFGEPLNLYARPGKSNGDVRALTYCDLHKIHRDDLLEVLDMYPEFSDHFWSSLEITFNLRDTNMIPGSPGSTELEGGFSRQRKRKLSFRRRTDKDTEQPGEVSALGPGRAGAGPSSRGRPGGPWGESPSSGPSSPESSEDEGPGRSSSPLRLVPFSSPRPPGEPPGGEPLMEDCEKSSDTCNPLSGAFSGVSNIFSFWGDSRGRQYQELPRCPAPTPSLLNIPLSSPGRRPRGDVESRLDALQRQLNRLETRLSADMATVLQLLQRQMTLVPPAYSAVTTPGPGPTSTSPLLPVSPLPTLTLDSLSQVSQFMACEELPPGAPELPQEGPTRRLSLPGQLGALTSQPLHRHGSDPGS
row,SMILES,"hERG current change (%, negative = inhibition) at 10uM [%]"
1,CNC(=S)N(C1=NCC(c2ccc([N+](=O)[O-])cc2)S1)c1ccccc1 (stereo not shown),-14.7
2,Cc1ccc2oc(C(=O)N(C)Cc3ccc(C)o3)c(C)c2c1,10.6
3,O=C(Cc1ccc(Br)cc1)Nc1ccccc1N1CCCC1,8.65
4,COC(=O)C1=C(c2cccc(OC)c2OC)C[C@@H]2CC[C@H]1N2C(=O)N1CCC(O)CC1,20.6
5,Cc1cccc(N/C(N)=N/c2nc(CSc3ccc(Cl)cc3)cc(=O)[nH]2)c1,19.2
6,Cc1ccc(SCCNS(=O)(=O)c2ccc(F)cc2)cc1,-15.6
7,Cc1ccc(-c2noc(CCC(=O)Nc3ccc4c(c3)OCO4)n2)cc1,3.68
8,O=C(COC(=O)c1ccc2c(c1)C(=O)N(Cc1ccncc1)C2=O)Nc1cccc2ccccc12,6.49
9,CC(=O)N(C)c1ccc(NC(=S)Nc2cccc3ccccc23)cc1,3.38
10,CCN(CC)CCN1C(=O)C(=O)/C(=C(/O)c2ccc(S(=O)(=O)N3CCOCC3)cc2)C1c1ccc(Cl)cc1 (stereo not shown),14.8
11,CCc1nc2ccc(Cc3ccc4nc(CC)[nH]c4c3)cc2[nH]1,18.5
12,CCN(CC)CCOc1ccccc1OC.O=C(O)C(=O)O,-11
13,Cc1ccc(Cn2c(SCC(=O)Nc3cc(C)on3)nc3ccccc3c2=O)cc1,1.29
14,Cc1cc(C)cc(N2C(=O)C3CCCN3C2=S)c1 (stereo not shown),16.7
15,COc1cccc(C(=O)Nc2nnc(S(=O)(=O)N3CCOCC3)s2)c1,1.51
16,CC(C)NCC(O)COc1c(F)cc(Br)cc1F.Cl (stereo not shown),-4.33
17,Cc1cc(C(=O)N2CCCC2C(=O)O)c(C)o1 (stereo not shown),7.91
18,CCc1ccc(OCC(=O)NCCOc2ccccc2)cc1,-8.08
19,Cc1cc(SCC(=O)NC(=O)NCc2ccco2)nc2c(C)cccc12,0.592
20,Cc1ccc(-c2nc(-c3cccnc3)no2)cc1,1.67
21,CCCC(=O)Nc1ccc(Cl)c(NC(=O)c2cccnc2)c1,12.2
22,Cc1ccc(-c2csc(NC(=O)Cc3cccs3)n2)cc1C,11.4

row,SMILES,"hERG current change (%, negative = inhibition) at 10uM [%]"
1,Cc1cccc(Nc2nc(-c3ccccn3)cs2)n1,12.9
2,Cc1cc(C(=O)NCCc2ccc(S(N)(=O)=O)cc2)no1,22.8
3,CC(=O)Nc1ccccc1NS(=O)(=O)c1ccccc1[N+](=O)[O-],20
4,Cc1cc(C)c(S(=O)(=O)NC2CC(C)(C)NC(C)(C)C2)cc1C,-0.3
5,COc1cc(C2SCC(=O)N2c2nnc(C34CC5CC(CC(C5)C3)C4)s2)cc(OC)c1OC (stereo not shown),-3.7
6,Cn1c(=O)c2c(ncn2CC(=O)NC2CCCCC2)n(C)c1=O,7.47
7,CC(C)(C)c1ccc(Oc2ccc(NC(=O)c3ccco3)cn2)cc1,-10.4
8,COc1ccc(NC(=O)CC(C)C)c([N+](=O)[O-])c1,-0.754
9,CC(C)(C)n1nnnc1C(c1cccc(C#N)c1)N1CCCc2ccccc21 (stereo not shown),-4.89
10,Clc1ccc(C2NCCc3[nH]cnc32)cc1 (stereo not shown),5.73
11,Cc1ccc(-c2csc(NC(=O)/C=C/c3ccco3)c2C(=O)O)cc1,13
12,COc1cc(OC)nc(Oc2ccccc2/C=N/O)n1,4.08
13,CCOC(=O)CC(=O)CSc1nc(C)cc(C)c1C#N,1.31
14,O=C(Nc1ccncc1)OCc1ccccc1,14.2
15,COC(=O)C1=C(c2ccc(F)cc2OCc2ccccc2)C[C@@H]2CC[C@H]1N2C(=O)NCc1ccc(F)cc1,-5.76
16,Cc1ccc(-c2nnn(CC(=O)N(c3cccc(F)c3)C(C(=O)NC3CCCC3)c3ccncc3)n2)o1 (stereo not shown),15.5
17,CCCNC(=O)N[C@@H](CCSC)C(=O)OC,11.7
18,O=C(Nc1ccc(Oc2ccc(NC(=O)Nc3ccccc3Cl)cc2)cc1)Nc1ccccc1Cl,23.4
19,CCOc1ccccc1CNCCO.Cl,12.1
20,CSc1ccc(/C=N/n2c(Cc3ccc(Br)cc3)n[nH]c2=S)cc1,-7.71
21,Cc1ccc(-c2nnc(N3CCN(C(=O)Cn4c(=O)n(C)c5ccccc54)CC3)c3ccccc23)cc1,-28.7
22,CCOc1ccc(-n2cc(C(=O)N3CCN(C)CC3)c3cc(OC)c(OC)cc3c2=O)cc1,4.98

row,SMILES,"hERG current change (%, negative = inhibition) at 10uM [%]"
1,CC(C)CCN1CC(C(=O)NCCC2=CCCCC2)CC1=O (stereo not shown),-7.57
2,O=C(CSc1nnc(NC(=O)C2CC(=O)N(c3ccccc3)C2)s1)NCc1ccco1 (stereo not shown),16.9
3,Cc1sc2ncn(CC(=O)NCCCC(=O)N3CCN(c4ccccn4)CC3)c(=O)c2c1C,-11
4,CCCCN1C(=O)c2ccc(C(=O)NC3(C)CCS(=O)(=O)C3)cc2C1=O (stereo not shown),-14
5,COc1ccc(C(=O)N2CCN(Cc3ccccc3C(F)(F)F)CC2)cc1.O=C(O)C(=O)O,-1.25
6,COc1ccc(Br)cc1S(=O)(=O)n1nc(C)cc1C,-7.5
7,CCOC(=O)N1CCN(C(=O)Nc2ccc3nccnc3c2)CC1,5.35
8,CCC(=O)c1ccc(OCC(=O)Nc2nn3cnnc3s2)cc1,10.1
9,NC(=O)CC(NC(=O)Cc1ccc(Br)cc1)c1ccc(N2CCN(c3ccccc3)CC2)c([N+](=O)[O-])c1 (stereo not shown),0.863
10,COc1cc(C(=O)N[C@@H](C)C(=O)N2CCC3(CC2)NCCc2[nH]cnc23)cc(OC)c1OC,19.2
11,COc1cc(/C=C/C(=O)OCC(=O)N2CCCc3ccccc32)ccc1OCC#N,-5.05
12,Cc1ccc(SCC(=O)NCCSC(C)(C)C)cc1,-6.91
13,Cc1nc2ccc([N+](=O)[O-])cc2c(=O)n1Cc1ccc(Br)cc1,7.76
14,COc1ccc(OC)c(C2C(C(C)=O)=C(O)C(=O)N2CCC(=O)O)c1 (stereo not shown),-2.97
15,CCn1ncc(N(C)N)c(Cl)c1=O,23.5
16,CCOC(=O)c1csc(NC(=O)CSc2nnnn2-c2ccc(OC)cc2)n1,7.08
17,COC(=O)N/N=C/c1ccc([N+](=O)[O-])o1,-6.11
18,CCC(C)(C)n1nnnc1C(c1cc2cc(C)cc(C)c2[nH]c1=O)N1CCN(C(=O)c2ccco2)CC1 (stereo not shown),-11.5
19,CC1CCCN(CCCNC(=O)C2CCC(CNS(=O)(=O)c3cccc4nsnc34)CC2)C1 (stereo not shown),-6.49
20,CCN1C(=O)/C(=C/c2cc(C)n(C)c2C)SC1=Nc1ccc(OC)cc1,9.24
21,CC1CCCN(C(=O)CSc2nnc(-c3c[nH]c4ccccc34)o2)C1 (stereo not shown),-0.849
22,c1ccc(CCCOCCC2CO2)cc1 (stereo not shown),6.22

row,SMILES,"hERG current change (%, negative = inhibition) at 10uM [%]"
1,CC(=O)Nc1cc2ccc(OC(C)=O)cc2oc1=O,10.4
2,COc1ccc(-c2cc(=O)[nH]c(N3CCN(Cc4ccccc4)CC3)n2)cc1,10.4
3,Cc1ccc(S(=O)(=O)CCC(=O)OCC(=O)c2ccc(F)cc2)cc1,6.79
4,COc1ccc(CCNC(=O)C2CCN(C(=O)NC3CCCCC3)CC2)cc1,8.09
5,O=C(O)c1ccc(N/N=C/c2ccc(C(F)(F)F)cc2)cc1.O=S(=O)(O)O,0.301
6,CCN(CC)S(=O)(=O)c1cccc(C(=O)N2CC(O)CC2C(=O)O)c1 (stereo not shown),-1.47
7,NC1=NC(=Nc2ccc(S(=O)(=O)N3CCOCC3)cc2)c2ccccc21,10.4
8,O=C(Cc1sc(-c2ccccc2)nc1-c1ccccc1)Nc1ccc(Cl)cc1,2.51
9,CC(=O)C1=C(O)C(=O)N(CCc2c[nH]c3ccccc23)C1c1cccc(O)c1 (stereo not shown),9.33
10,CCN1CCN(C(=S)c2ccc(O)cc2)CC1,11
11,Fc1ccc(CSc2ccc(-c3cccs3)nn2)cc1,13.2
12,O=C(O)c1ccc(-c2ccccc2)[nH]c1=O,7.95
13,COc1ccc(Cl)cc1NC(=O)CSc1nc(N2CCOCC2)nc(N2CCOCC2)n1,-9.85
14,O=C(c1cnc2ccccn2c1=O)N1CCCc2ccccc21,-1.57
15,Cc1ccc(NCC(=O)c2ccc(C)cc2)cc1,4.98
16,Cc1ccc(NC(=O)CN2C(=O)c3ccccc3S2(=O)=O)c(C)c1,5.77
17,COCC1CCCCN1Cc1cn[nH]c1-c1ccc(OC)cc1OC (stereo not shown),-25.5
18,CN(C)C(=O)/C(=C\c1ccc(-c2cccc([N+](=O)[O-])c2)o1)NC(=O)c1ccccc1,-47.9
19,CCOC(=O)c1sc2ncnc(N3CCN(CC)CC3)c2c1C,-63.9
20,O=C(O)c1cc(-c2ccc(/C=C3\NC(=O)N(c4ccc(Cl)cc4)C3=O)o2)ccc1Cl,7.5
21,CC(C)(CNC(=O)c1ccc(S(=O)(=O)Nc2cccc(C(F)(F)F)c2)cc1)N1CCOCC1,-29.6
22,N#Cc1c(SCc2cccc(Cl)c2)sc(C(=O)c2ccccc2)c1N,16.9

# Source: publication PMC4336329 (PLoS ONE, 2015)
